# Results from US20220348665A1 (ABL BIO, published 2022).
# Residue numbers refer to the chain shown, from its start.
# B1: Hu11F11(ver.2)-1564 (bivalent bispecific antibody) (bispecific antibody, human IgG1, kappa)
# heavy: EVQLVESGGGLVQPGGSLRLSCATSGFTFSDFYMEWVRQPPGKRLEWIAASRNKANDYTTEYSASVKGRFTVSRDDSKSSLYLQMNSLRAEDTAIYYCARDAHGKPFAYWGQGTTVTVSS[human IgG1 constant region cut from this listing]GGGGSGGGGSGGGGSQSVLTQPPSASGTPGQRVTISCTGSSSNIGSNDVSWYQQLPGTAPKLLIYANSNRPSGVSDRFSGSKSGTSASLAISGLRSEDEADYYCGAWDDSLNGYVFGCGTKLTVLGGGGSGGGGSGGGGSGGGGSEVQLLESGGGLVQPGGSLRLSCAASGFTFSSYDMSWVRQAPGKCLEWVSAISYDNGNTYYADSVKGRFTISRDNSKNTLYLQMNSLRAEDTAVYYCAKGVLTTLMNWFDYWGQGTLVTVSS
# light: DIVMTQSPSSLAVSLGERVTMS[about 80 residues cut from this listing][about 120 residues cut from this listing]
# notes: also called hu11F11x1564 WT
# B2: Hu11F11(ver.2)-VH2 (bivalent bispecific antibody) (bispecific antibody)
# heavy: EVQLVESGGGLVQPGGSLRLSCATSGFTFSDFYMEWVRQPPGKRLEWIAASRNKANDYTTEYSASVKGRFTVSRDDSKSSLYLQMNSLRAEDTAIYYCARDAHGKPFAYWGQGTTVTVSS[human IgG1 constant region cut from this listing]GGGGSGGGGSGGGGSQSVLTQPPSASGTPGQRVTISCTGSSSNIGSNDVSWYQQLPGTAPKLLIYANSNRPSGVSDRFSGSKSGTSASLAISGLRSEDEADYYCGAWDDSLNGYVFGCGTKLTVLGGGGSGGGGSGGGGSGGGGSEVQLLESGGGLVQPGGSLRLSCAASGFTFSSYAMSWVRQAPGKCLEWVSAISGSNGNTYYADSVKGRFTISRDNSKNTLYLQMNSLRAEDTAVYYCAKGVLTTLANWFDYWGQGTLVTVSS
# light: DIVMTQSPSSLAVSLGERVTMS[about 80 residues cut from this listing][about 120 residues cut from this listing]
# notes: also called hu11F11x1564_VH2
# B3: Hu11F11(ver.2)-VH7 (bivalent bispecific antibody) (bispecific antibody)
# heavy: EVQLVESGGGLVQPGGSLRLSCATSGFTFSDFYMEWVRQPPGKRLEWIAASRNKANDYTTEYSASVKGRFTVSRDDSKSSLYLQMNSLRAEDTAIYYCARDAHGKPFAYWGQGTTVTVSS[human IgG1 constant region cut from this listing]GGGGSGGGGSGGGGSQSVLTQPPSASGTPGQRVTISCTGSSSNIGSNDVSWYQQLPGTAPKLLIYANSNRPSGVSDRFSGSKSGTSASLAISGLRSEDEADYYCGAWDDSLNGYVFGCGTKLTVLGGGGSGGGGSGGGGSGGGGSEVQLLESGGGLVQPGGSLRLSCAASGFTFSSYAMSWVRQAPGKCLEWVSAISYDNGSTYYADSVKGRFTISRDNSKNTLYLQMNSLRAEDTAVYYCAKGVLTTLMNWFDYWGQGTLVTVSS
# light: DIVMTQSPSSLAVSLGERVTMS[about 80 residues cut from this listing][about 120 residues cut from this listing]
# notes: also called hu11F11x1564_VH7
# B4: Hu11F11(ver.2)-VH32 (bivalent bispecific antibody) (bispecific antibody)
# heavy: EVQLVESGGGLVQPGGSLRLSCATSGFTFSDFYMEWVRQPPGKRLEWIAASRNKANDYTTEYSASVKGRFTVSRDDSKSSLYLQMNSLRAEDTAIYYCARDAHGKPFAYWGQGTTVTVSS[human IgG1 constant region cut from this listing]GGGGSGGGGSGGGGSQSVLTQPPSASGTPGQRVTISCTGSSSNIGSNDVSWYQQLPGTAPKLLIYANSNRPSGVSDRFSGSKSGTSASLAISGLRSEDEADYYCGAWDDSLNGYVFGCGTKLTVLGGGGSGGGGSGGGGSGGGGSEVQLLESGGGLVQPGGSLRLSCAASGFTFSSYAMSWVRQAPGKCLEWVSAISYDNGNTYYADSVKGRFTISRDNSKNTLYLQMNSLRAEDTAVYYCAKGVLTTLANWFDYWGQGTLVTVSS
# light: DIVMTQSPSSLAVSLGERVTMS[about 80 residues cut from this listing][about 120 residues cut from this listing]
# notes: also called hu11F11x1564_VH32
# B5: hu11F11(ver.2)-VH5(de2)(StoP) bivalent (bispecific antibody) (bispecific antibody, human IgG1, kappa)
# heavy: EVQLVESGGGLVQPGGSLRLSCATSGFTFSDFYMEWVRQPPGKRLEWIAASRNKANDYTTEYSASVKGRFTVSRDDSKSSLYLQMNSLRAEDTAIYYCARDAHGKPFAYWGQGTTVTVSS[human IgG1 constant region cut from this listing]GGGGSGGGGSGGGGSQSVLTQPPSASGTPGQRVTISCTGSSSNIGSNDVSWYQQLPGTAPKLLIYANVNRPSGVPDRFSGSKSGTSASLAISGLRSEDEADYYCGAWDDSLNAYVFGCGTKLTVLGGGGSGGGGSGGGGSGGGGSEVQLLESGGGLVQPGGSLRLSCAASGFTFSSYDMSWVRQAPGKCLEWVSAISGDNASTYYADSVKGRFTISRDNSKNTLYLQMNSLRAEDTAVYYCAKGVLTTLMNWFDSWGQGTLVTVSS
# light: DIVMTQSPSSLAVSLGERVTMS[about 80 residues cut from this listing][about 120 residues cut from this listing]
# notes: also called hu11f11-VH5(de2)(StoP); VH5 bi (de2)(StoP)
# B6: hu11F11(ver.2)-VH16(de2)(StoP) bivalent (bispecific antibody) (bispecific antibody, human IgG1, kappa)
# heavy: EVQLVESGGGLVQPGGSLRLSCATSGFTFSDFYMEWVRQPPGKRLEWIAASRNKANDYTTEYSASVKGRFTVSRDDSKSSLYLQMNSLRAEDTAIYYCARDAHGKPFAYWGQGTTVTVSS[human IgG1 constant region cut from this listing]GGGGSGGGGSGGGGSQSVLTQPPSASGTPGQRVTISCTGSSSNIGSNDVSWYQQLPGTAPKLLIYANVNRPSGVPDRFSGSKSGTSASLAISGLRSEDEADYYCGAWDDSLNAYVFGCGTKLTVLGGGGSGGGGSGGGGSGGGGSEVQLLESGGGLVQPGGSLRLSCAASGFTFSSYDMSWVRQAPGKCLEWVSAISGSNANTYYADSVKGRFTISRDNSKNTLYLQMNSLRAEDTAVYYCAKGVLTTLMNWFDYWGQGTLVTVSS
# light: DIVMTQSPSSLAVSLGERVTMS[about 80 residues cut from this listing][about 120 residues cut from this listing]
# notes: also called hu11F11-VH16(de2)(StoP); VH16 bi (de2)(StoP)
# B7: hu11F11-1564(ver.3) (bispecific antibody)
# heavy: B1 heavy with V72I, D76T
# light: DIVMTQSPSSLAVSLGERVTMS[about 80 residues cut from this listing][about 120 residues cut from this listing]
# B8: hu11F11(ver.2)-F06(de2)(StoP) monovalent (bispecific antibody) (bispecific antibody, human IgG1, kappa)
# heavy 1: EVQLVESGGGLVQPGGSLRLSCATSGFTFSDFYMEWVRQPPGKRLEWIAASRNKANDYTTEYSASVKGRFTVSRDDSKSSLYLQMNSLRAEDTAIYYCARDAHGKPFAYWGQGTTVTVSSASTKGPSVFPLAPSSKSTSGGTAALGCLVKDYFPEPVTVSWNSGALTSGVHTFPAVLQSSGLYSLSSVVTVPSSSLGTQTYICNVNHKPSNTKVDKKV[human IgG1 Fc with changes cut from this listing]GGGGSGGGGSGGGGSQSVLTQPPSASGTPGQRVTISCTGSSSNIGSNDVSWYQQLPGTAPKLLIYANVNRPSGVPDRFSGSKSGTSASLAISGLRSEDEADYYCGTWAGSLNAYVFGCGTKLTVLGGGGSGGGGSGGGGSGGGGSEVQLLESGGGLVQPGGSLRLSCAASGFTFSSYDMSWVRQAPGKCLEWVSAISYDNANTYYADSVKGRFTISRDNSKNTLYLQMNSLRAEDTAVYYCAKGVLTTLMNWFDYWGQGTLVTVSS
# heavy 2: EVQLVESGGGLVQPGGSLRLSCATSGFTFSDFYMEWVRQPPGKRLEWIAASRNKANDYTTEYSASVKGRFTVSRDDSKSSLYLQMNSLRAEDTAIYYCARDAHGKPFAYWGQGTTVTVSS[human IgG1 constant region with changes cut from this listing]
# light: DIVMTQSPSSLAVSLGERVTMS[about 80 residues cut from this listing][about 120 residues cut from this listing]
# notes: also called hu11f11-F06(de2)(StoP); F06 mono (de2)(StoP)
# B9: hu11F11-1564 (ver.3) mono (bispecific antibody)
# heavy 1: EVQLVESGGGLVQPGGSLRLSCATSGFTFSDFYMEWVRQPPGKRLEWIAASRNKANDYTTEYSASVKGRFTISRDTSKSSLYLQMNSLRAEDTAIYYCARDAHGKPFAYWGQGTTVTVSSASTKGPSVFPLAPSSKSTSGGTAALGCLVKDYFPEPVTVSWNSGALTSGVHTFPAVLQSSGLYSLSSVVTVPSSSLGTQTYICNVNHKPSNTKVDKKV[human IgG1 Fc with changes cut from this listing]GGGGSGGGGSGGGGSQSVLTQPPSASGTPGQRVTISCTGSSSNIGSNDVSWYQQLPGTAPKLLIYANSNRPSGVSDRFSGSKSGTSASLAISGLRSEDEADYYCGAWDDSLNGYVFGCGTKLTVLGGGGSGGGGSGGGGSGGGGSEVQLLESGGGLVQPGGSLRLSCAASGFTFSSYDMSWVRQAPGKCLEWVSAISYDNGNTYYADSVKGRFTISRDNSKNTLYLQMNSLRAEDTAVYYCAKGVLTTLMNWFDYWGQGTLVTVSS
# heavy 2: EVQLVESGGGLVQPGGSLRLSCATSGFTFSDFYMEWVRQPPGKRLEWIAASRNKANDYTTEYSASVKGRFTISRDTSKSSLYLQMNSLRAEDTAIYYCARDAHGKPFAYWGQGTTVTVSS[human IgG1 constant region with changes cut from this listing]
# light: DIVMTQSPSSLAVSLGERVTMS[about 80 residues cut from this listing][about 120 residues cut from this listing]
# notes: monovalent form, marked 'mono' on the sheet
# Experiments:
# [1] = target: alpha-synuclein aggregates (human alpha-synuclein, fibril) (human, UniProt P37840); test: ELISA on coated alpha-synuclein aggregates, antibody 5-fold dilutions from 400 nM, anti-human Fc-HRP; value is C of the 4-P fit table under the plot
# [2] = target: T1, human IGF1R extracellular domain, recombinant, His tag at C-terminus (human, UniProt P08069 31-932); test: ELISA on ECD of IGF1R, bispecific form
# T1 construct: also called human IGF1R ECD; ECD of IGF1R
# [3] = target: T2, human IGF1R, endogenous, on the surface of breast cancer cell lines (MCF-7, JIMT-1, BT474) (human, UniProt P08069 31-1367); test: FACS on MCF-7 cells, antibody 10 ug/mL (2nd Ab only 2.86, not treated 1.88)
# T2 construct: also called endogenous IGF1R on the cell surface; MCF-7 cell line
# [4] = target: T1, human IGF1R extracellular domain, …; test: category of binding affinity; basis not stated, follows the ELISA of Table 18
# [5] = target: T1, human IGF1R extracellular domain, …; test: ELISA on human IGF1R protein
# [6] = target: T1, human IGF1R extracellular domain, …; test: ELISA on human IGF1R protein, against VH5 WT
# [7] = target: T2, human IGF1R, endogenous, on the surface …; test: FACS on MCF-7 cells (2ndary Ab only MFI 2.29)
# [8] = target: T1, human IGF1R extracellular domain, …; test: ELISA, human IGF1R ECD coated, against VH5 wild type
# [9] = target: T1, human IGF1R extracellular domain, …; test: ELISA, human IGF1R ECD (Sino Biological) coated, anti-human Fc-HRP
# [10] = target: T1, human IGF1R extracellular domain, …; test: ELISA on human IGF1R protein, against VH16 WT
# [11] = target: T1, human IGF1R extracellular domain, …; test: ELISA, human IGF1R ECD coated, against VH16 wild type
# [12] = target: T1, human IGF1R extracellular domain, …; test: ELISA on human IGF1R protein, against F06 WT
# [13] = target: T1, human IGF1R extracellular domain, …; test: ELISA, human IGF1R ECD coated, against F06 wild type
Binder,EC50 [1],EC50 [2],"GeoMean, Internalization at 37° C. [3]",fold decrease of binding affinity (against parental 1564 clone) [4],EC50 [5],MFI [7],EC50 [9],other results
B1,4.27 nM,–,–,–,–,–,–,–
B2,–,135 nM,3.19,≥ 50 fold,–,–,–,–
B3,–,402 nM,3.84,≥ 50 fold,–,–,–,–
B4,–,121 nM,3.24,≥ 50 fold,–,–,–,–
B5,–,–,–,–,0.0561 nM,8.03,0.0561 nM,% WT [6]: 223%; % WT [8]: 223%
B6,–,–,–,–,0.122 nM,6.42,0.122 nM,% WT [10]: 117%; % WT [11]: 117%
B7,0.874 nM,–,–,–,–,–,–,–
B8,–,–,–,–,0.0575 nM,8.61,0.0575 nM,% WT [12]: 195%; % WT [13]: 195%
B9,0.559 nM,–,–,–,–,–,–,–
